From article PMC4336329 (PLoS ONE, 2015)
About 14,000 (4.5%) of roughly 310,000 compounds showed an effect of 50% or more. Effects have a minus sign here. This is one part of the list.

Biological target: human ether-à-go-go-related gene (hERG) potassium channel (human, UniProt Q12809)
Assay: primary screen, population patch clamp on CHO cells stably expressing hERG
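Also: peak tail current of the secondary pulse compared with the same well before compound.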

Chain of human ether-à-go-go-related gene (hERG) potassium channel (Q12809 whole entry, looked up): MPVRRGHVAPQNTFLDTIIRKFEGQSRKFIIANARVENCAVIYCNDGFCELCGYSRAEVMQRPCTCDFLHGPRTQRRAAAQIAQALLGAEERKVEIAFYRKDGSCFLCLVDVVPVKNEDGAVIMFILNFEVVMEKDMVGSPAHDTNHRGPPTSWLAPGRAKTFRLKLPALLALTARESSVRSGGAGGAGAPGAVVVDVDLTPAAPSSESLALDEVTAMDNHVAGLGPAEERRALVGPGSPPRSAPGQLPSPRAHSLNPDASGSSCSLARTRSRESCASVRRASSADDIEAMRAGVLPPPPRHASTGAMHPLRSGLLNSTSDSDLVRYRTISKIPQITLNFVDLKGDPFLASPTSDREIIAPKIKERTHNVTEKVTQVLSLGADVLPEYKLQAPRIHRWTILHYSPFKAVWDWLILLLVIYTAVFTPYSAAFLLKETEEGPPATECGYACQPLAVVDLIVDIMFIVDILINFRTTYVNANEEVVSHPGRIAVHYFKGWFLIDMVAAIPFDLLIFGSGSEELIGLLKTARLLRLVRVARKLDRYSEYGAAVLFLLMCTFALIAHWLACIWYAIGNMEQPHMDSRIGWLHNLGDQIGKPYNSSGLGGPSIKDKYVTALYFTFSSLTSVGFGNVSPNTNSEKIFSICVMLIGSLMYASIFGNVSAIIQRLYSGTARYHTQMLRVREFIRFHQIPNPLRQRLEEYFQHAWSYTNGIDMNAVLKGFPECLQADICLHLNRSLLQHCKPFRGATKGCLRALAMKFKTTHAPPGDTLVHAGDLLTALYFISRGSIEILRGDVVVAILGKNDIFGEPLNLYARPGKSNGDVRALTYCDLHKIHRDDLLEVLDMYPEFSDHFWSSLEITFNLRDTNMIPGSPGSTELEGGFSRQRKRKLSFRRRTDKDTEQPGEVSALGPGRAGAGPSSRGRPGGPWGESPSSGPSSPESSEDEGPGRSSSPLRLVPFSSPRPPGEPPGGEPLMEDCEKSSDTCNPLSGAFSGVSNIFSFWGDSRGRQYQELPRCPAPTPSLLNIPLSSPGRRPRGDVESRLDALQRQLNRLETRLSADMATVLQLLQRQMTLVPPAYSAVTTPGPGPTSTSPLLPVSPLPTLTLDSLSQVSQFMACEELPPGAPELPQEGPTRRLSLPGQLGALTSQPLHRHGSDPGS

Row | Compound | hERG current change (%, negative = inhibition) at 10uM
1 | Cc1ccc(S(=O)(=O)CCC(=O)Nc2cc(Cl)ccc2-n2cncn2)cc1 | -23.6%
2 | COc1ccc(-c2nnc(SCC(=O)N3CCOCC3)o2)cc1 | -1.92%
3 | O=S(=O)(c1ccc(Cl)cc1)N1CCSC1c1ccco1 (stereo not drawn) | -22.5%
4 | O=c1cc(-c2ccc(O)cc2)oc2ccc3ccccc3c12 | 5.27%
5 | CCOc1ccc(OCC(=O)OCC(=O)NCC2CCCO2)cc1 (stereo not drawn) | 12.2%
6 | Fc1cccc(/C=N/NC(=S)Nc2ccccc2Cl)c1 | 10.6%
7 | CCOc1cc(/C=N/O)cc(Br)c1OCc1ccc(Cl)cc1 | 14.1%
8 | O=[N+]([O-])c1ccc(OCc2cn([C@@H](CO)c3ccccc3)nn2)c(Br)c1 | -10.3%
9 | Clc1ccc(CON/C=N/c2ncnc3sccc23)cc1 | 18.7%
10 | O=C(CCSc1ccccc1)N1CCOCC1 | 13.3%
11 | CN(C)/C=N/S(=O)(=O)c1ccc(Cl)cc1 | 6.32%
12 | Cc1cc2ncn(C(=O)N3CCCC3)c2cc1C | 20.9%
13 | CCCCC(C(=O)NC(C)(C)C)N(Cc1ccco1)C(=O)c1snc(C(N)=O)c1N (stereo not drawn) | -11.2%
14 | CC(C)(C)C1CCC(=NNc2ncc(C(F)(F)F)cc2Cl)CC1 (stereo not drawn) | -2.01%
15 | CCN(CC)CC(=O)c1c[nH]c2ccc(C)cc12 | -20.3%
16 | CCOc1ccccc1-n1c(SCC(=O)NCc2ccco2)nnc1-c1ccncc1 | -10.5%
17 | Cc1ccccc1-c1nnc(SCC(=O)N2CCCC2)o1 | 14.4%
18 | CCN1CCN(c2ccc(S(=O)(=O)N3CCOCC3)cc2NC(=O)c2ccc(C)cc2C)CC1 | -30%
19 | Cc1ccccc1N(C(=O)CCCC(=O)Nc1ccccn1)C(C(=O)NC1CCCC1)c1ccc(O)cc1 (stereo not drawn) | 6.98%

Row | Compound | hERG current change (%, negative = inhibition) at 10uM
20 | CCOC(=O)c1ccc(NC(=O)CC2SC(=NC)N(C)C2=O)cc1 (stereo not drawn) | -0.295%
21 | COc1cc(/C=C/C(=O)O)ccc1OCc1ccccc1C#N | 4.01%
22 | COc1cc2[nH]c(=O)n(CCC(=O)N3CCC(N4CCCCC4)CC3)c(=O)c2cc1OC | 21.8%
23 | Cn1nc(C(F)(F)F)c(C#N)c1N1CCN(c2ccccc2F)CC1 | 3.96%
24 | CN1CCCC2(CCCN(Cc3nc(Cc4cccc(C(F)(F)F)c4)no3)C2)C1 (stereo not drawn) | -45.2%
25 | C=CCn1c(CCC(=O)O)ccc1-c1ccccc1 | -3.49%
26 | O=C(NCCC1=CCCCC1)C1CCCN(S(=O)(=O)c2cnc[nH]2)C1 (stereo not drawn) | -2.18%
27 | CCCCC(CC)COC1(c2ccccc2)OC(=O)c2ccccc21 (stereo not drawn) | 6.62%
28 | [O-][n+]1onc2c1C(N1CCOCC1)CCC2N1CCOCC1 (stereo not drawn) | -5.56%
29 | COc1ccc(C(c2nnnn2C2CCCCC2)N2CCN(c3ccc(OC)cc3)CC2)cc1 (stereo not drawn) | -17%
30 | Cc1ccc(-c2ccc(/C=N/NC(=O)Cc3nnc(N)s3)o2)cc1Cl | -2.07%
31 | CCOc1ccc(-c2nnc(SCC(=O)Nc3cc(C)on3)o2)cc1 | 14.1%
32 | CCc1ccc(N2CC(C)Cn3c2nc2c3c(=O)[nH]c(=O)n2C)cc1 (stereo not drawn) | -24.8%
33 | CCCOc1ccc(C(=O)NNC(=O)CCNC(=O)c2ccco2)cc1OC | 13.7%
34 | CCc1nnc(NC(=O)C2CC(=O)N(CCc3ccc(F)cc3)C2)s1 (stereo not drawn) | 4.54%
35 | COc1cc(OC)cc(C(=O)Nc2ccc(N3CCN(C(=O)c4cccs4)CC3)cc2)c1 | -12.5%
36 | COc1ccc(-c2[nH]ncc2-c2cnn(-c3ccccc3)c2)c(O)c1 | -16.6%
37 | Cc1nc(-c2ccncc2)sc1C(=O)Nc1ccc(Br)cc1 | 15.9%
38 | Cc1cc(C(=O)NNC2CC(=O)N(c3ccc4ccccc4c3)C2=O)c(C)o1 (stereo not drawn) | 14.2%

Row | Compound | hERG current change (%, negative = inhibition) at 10uM
39 | O=C(NC1(C(F)(F)F)NC(=O)N(C2CCCC2)C1=O)C1CC1 (stereo not drawn) | 4.63%
40 | O=C(Cn1nnc(-c2ccc(Cl)cc2)n1)NC1CCS(=O)(=O)C1 (stereo not drawn) | -6.69%
41 | CC(C)(C)c1ccc(SCCc2ccncc2)cc1 | 3.48%
42 | Cc1ccnc(N2CCC(C(=O)NNC(=O)c3ccccc3C)CC2)n1 | -8.38%
43 | CC(C)(C)c1ccc(NC(=S)NCc2cccnc2)cc1 | 10.4%
44 | CC(=O)O.COc1ccc2nccc(/C=C/c3ccnc4ccc(OC)cc34)c2c1 | -19.6%
45 | CCOC(=O)NC(CC(=O)O)c1ccc(OC)c(OC)c1 (stereo not drawn) | -5.02%
46 | O=S(=O)(NCC(c1ccc2c(c1)OCO2)N1CCOCC1)c1ccc(Br)cc1 (stereo not drawn) | -16%
47 | Cn1cccc1CC(=O)N/N=C/c1ccc([N+](=O)[O-])cc1 | -1.88%
48 | CCCc1cc(=O)oc2cc(OCC(=O)NC3CCN(Cc4ccccc4)CC3)ccc12 | -60.2%
49 | CCNC(=S)NCc1ccc2[nH]c(C)cc2c1 | 5.06%
50 | COc1ccc2nc(N3CCN(C(=O)c4ccc([N+](=O)[O-])o4)CC3)sc2c1 | -49.6%
51 | CCn1cc(-c2cc(C(F)(F)F)n3nc(C(=O)O)cc3n2)c(C)n1 | -8.81%
52 | O=C(c1ccc2nc(-c3ccco3)c(-c3ccco3)nc2c1)N1CCN(c2ncccn2)CC1 | -67.8%
53 | CCOC(=O)c1c(NC(NC(C)=O)C(Cl)(Cl)Cl)sc2c1CCCC2 (stereo not drawn) | -1.73%
54 | Cc1cc(/C=C2/SC(=O)N(CC(=O)N3CCCC3)C2=O)ccc1N1CCOCC1 | 1.24%
55 | CCCOC1CCCN(C(=O)c2cc(COc3ccc(F)c(F)c3)on2)C1 (stereo not drawn) | -39.1%
56 | Cc1ccc2nc(-c3ccccn3)cc(C(=O)N3CCN(c4ncccn4)CC3)c2c1 | 7.32%
57 | Cn1nccc1C(=O)Nc1cc(Cl)ccc1Cl | 9.02%
